Molecules are shown by their SMILES. The list shows a part of the results. Shown are side measurements of this screen, not its main read-out; they come without a call.

This is an account of results in PubChem BioAssay AID1745853 (National Center for Advancing Translational Sciences (NCATS), 2022).

Common to all, as to experiment: Primary Screen for Target Class Profiling of Small Molecule Inhibitors of Methyltransferases
Assay [1] addresses Glycine N-methyltransferase (Homo sapiens) (UniProt Q14749). To be noted: purified enzyme, MTase-Glo SAH luminescence; measured here: GNMT inhibition; at 40 µM; stronger effect = lower value. A digest of the protocol: (§1)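 Each enzyme was assayed with SAM and its substrate. SAH formation detected by MTase-Glo luminescence; single-point 40 uM screen[…].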
In assay [2] the target is Guanidinoacetate N-methyltransferase (Homo sapiens) (UniProt Q14353). To be noted: purified enzyme, MTase-Glo SAH luminescence; measured here: GAMT inhibition; at 40 µM; stronger effect = lower value. In outline: as §1
For assay [3], the target named is Histamine N-methyltransferase (Homo sapiens) (UniProt P50135). To be noted: purified enzyme, MTase-Glo SAH luminescence; measured here: HNMT inhibition; at 40 µM; stronger effect = lower value. In outline:
as §1

In assay [4] the target is Nicotinamide N-methyltransferase (Homo sapiens) (UniProt P40261). To be noted: purified enzyme, MTase-Glo SAH luminescence; measured here: NNMT inhibition; at 40 µM; stronger effect = lower value. In outline:
as §1

For assay [5], the target named is Phenylethanolamine N-methyltransferase (Homo sapiens) (UniProt P11086). To be noted: purified enzyme, MTase-Glo SAH luminescence; measured here: PNMT inhibition; at 40 µM; stronger effect = lower value. A digest of the protocol:
as §1
% is scaled to controls: 0 for no effect and ±100 for the full control effect.

With `CCC(C)NC(=O)CSc1nnc2n(Cc3ccc(C)cc3)c(=O)c3ccccc3n12` (stereo not given), the activity change, negative = inhibition in assay [1] was -0.873%; in assay [2], 0%; in assay [3], 7.26%; in assay [4] it was -4.92%; in assay [5], 0.567%.
Take `CC(C)(C)C1CN(Cc2cccs2)C(=O)c2cccnc2O1` (stereo not given): the activity change, negative = inhibition is -3.54% in assay [1]; 5.27% in assay [2]; 2.88% in assay [3]; -6.25% in assay [4]; 13.4% in assay [5].
On to `C=C1C(=O)O[C@@H]2C[C@H](C)[C@@H]3CC(=O)[C@H](O)[C@@]3(C)C[C@H]12`, for which the activity change, negative = inhibition in assay [1] was 2.17%; in assay [2] it was -3.67%; in assay [3], 7.83%; in assay [4], -10.9%; in assay [5] it was -6.6%.
On the same counts, the results for `CC1(C(=O)NCc2ccc(Cl)cc2)Cn2c(ccc2-c2ccco2)C(=O)N1Cc1ccccc1` (stereo not given) are -4.45%, 2.34%, 0.823%, -10.2% and -3.7%.
`S=c1[nH]c(-c2ccccc2)cn1-c1ccccc1`: the activity change, negative = inhibition in assay [1] was -39%; in assay [2], 6.87%; in assay [3] it was -0.944%; in assay [4], -6.68%; in assay [5] it was 6.04%.
For `Cc1cccc(NS(=O)(=O)c2ccc3[nH]c(=O)[nH]c3c2)c1C`, the activity change, negative = inhibition in assay [1] is -8.66%; in assay [2], 5.57%; in assay [3], 0.588%; in assay [4], 3.65%; in assay [5], -12%.
In the case of `O=C(O)c1ccc(-c2nnc3ccc(NC(=O)C4CCC4)cn23)cc1`, the activity change, negative = inhibition is -14.2% in assay [1]; -0.962% in assay [2]; -3.28% in assay [3]; -7.42% in assay [4]; -8.16% in assay [5].
Take `CCCN1C(=O)c2cc(-c3ccc(OC)cc3)nn2CC1(C)C(=O)NC1CCCCC1` (stereo not given): the activity change, negative = inhibition is 2.09% in assay [1]; -2.09% in assay [2]; 2.35% in assay [3]; -1.34% in assay [4]; -3.28% in assay [5].
For the compound `COc1ccc(C(=O)N[C@H]2COC[C@H]2Cc2cc(C)no2)c(OC)n1`, the activity change, negative = inhibition in assay [1] was -6.04%; in assay [2], -4.54%; in assay [3], -0.891%; in assay [4], -10.3%; in assay [5] it was 2.2%.
Take `Cc1ccc(CN2C(=O)c3ccc(-c4ccco4)n3CC2(C)C(=O)NC2CCCC2)cc1` (stereo not given): the activity change, negative = inhibition in assay [1] was -8.29%; in assay [2], 3.63%; in assay [3] it was 3.14%; in assay [4], -8.02%; in assay [5], -2.29%.
`CS(=O)(=O)c1ccc(-c2nnc(/C=C/c3nnc(-c4ccc(C#N)cc4)o3)n2-c2ccccc2Cl)nc1`: the activity change, negative = inhibition was -5.84% in assay [1]; -2.78% in assay [2]; 6.92% in assay [3]; -24.2% in assay [4]; -4.72% in assay [5].
For the compound `COc1ccc(-c2nnc3n(Cc4ccc(C)cc4)c(=O)c4ccccc4n23)c(OC)c1`, the activity change, negative = inhibition in assay [1] is -5.95%; in assay [2], 1.43%; in assay [3], 2.06%; in assay [4] it was -8.39%; in assay [5], -1.58%.
As for `O=C(NCCc1ccccc1)c1ccc2c(=O)nc3c(-c4ccc(F)cc4)n[nH]n3c2c1`, the activity change, negative = inhibition was -3.69% in assay [1]; 0.658% in assay [2]; -4.83% in assay [3]; -2.78% in assay [4]; -6.52% in assay [5].
`CC(=O)Nc1nc(C)c(-c2nc(N3CCCC(O)C3)no2)s1` (stereo not given): the activity change, negative = inhibition is -34.3% in assay [1]; -6.97% in assay [2]; -33.3% in assay [3]; -17.7% in assay [4]; -19.1% in assay [5].
The corresponding values for `NS(=O)(=O)c1ccc(CCNc2nc3c(-c4cccc(Br)c4)nnn3c3ccccc23)cc1` are -8.1%, 0%, 5.78%, -11.7% and -12%.
As to `O=C(O)[C@H](CC(=O)N1C[C@H]2CCCC[C@H]2C1)Cc1ccccc1`, the activity change, negative = inhibition in assay [1] was -3.05%; in assay [2] it was 2.39%; in assay [3], -2.96%; in assay [4], -14.5%; in assay [5], -6.18%.
For the compound `CC1CCN(S(=O)(=O)c2ccc3c(ccn3CC(=O)NCc3ccc(Cl)cc3)c2)CC1`, the activity change, negative = inhibition in assay [1] was -1.14%; in assay [2] it was 2.39%; in assay [3] it was -1.26%; in assay [4], 2.01%; in assay [5] it was -0.451%.
Take `COc1ccc(OC)c(S(=O)(=O)N2CCC3(CC2)C(OC)C(=O)N3CC2CC2)c1` (stereo not given): the activity change, negative = inhibition in assay [1] worked out at 1.16%; in assay [2], 2.88%; in assay [3], 11.6%; in assay [4], 6.93%; in assay [5], 7.38%.
Take `COc1ccc(Cc2nc3nccc(-c4cc5ccccc5o4)n3n2)cc1`: the activity change, negative = inhibition in assay [1] is -6.88%; in assay [2], 2.16%; in assay [3], 0.081%; in assay [4] it was -2.29%; in assay [5] it was 12.5%.
Turning to `CC(O)CCC1C(CO[C@@H]2O[C@H](CO)[C@@H](O)[C@H](O)[C@H]2O)CC(O)CC1(C)C` (stereo not given in full), the activity change, negative = inhibition is -0.213% in assay [1]; 2.55% in assay [2]; 4.26% in assay [3]; -8.21% in assay [4]; -3.21% in assay [5].
On the same counts, the results for `COc1cc2ncnc(-n3nc(-c4ccccn4)nc3N)c2cc1OC` are -6.32%, -1.27%, 2.19%, -11.2% and -4.1%.
`CCCCNC(=O)CCn1ccc2cc(S(=O)(=O)N3CCCCC3)ccc21`: the activity change, negative = inhibition in assay [1] turned out to be 6.19%; in assay [2] it was 1.81%; in assay [3] it was 2.66%; in assay [4], 5.07%; in assay [5], 2.83%.
In the case of `COCCn1c(C)cnc1CC1CCN(C(=O)C2CC2)CC1`, the activity change, negative = inhibition in assay [1] is -0.424%; in assay [2] it was -5.08%; in assay [3] it was -0.939%; in assay [4] it was -1.48%; in assay [5], 0.823%.
Turning to `CC(C)CNC(=O)c1ccc2c(=O)n(Cc3ccccc3)c3n[nH]c(=O)n3c2c1`, the activity change, negative = inhibition in assay [1] was -8.03%; in assay [2], -2.93%; in assay [3] it was -6.59%; in assay [4], -22.5%; in assay [5], -17.3%.
Take `CCCn1c(=O)c2ccc(C(=O)NC3CCCC3)cc2n2c(SCC(N)=O)nnc12`: the activity change, negative = inhibition in assay [1] was 6.63%; in assay [2], 0%; in assay [3], 9.32%; in assay [4] it was 1.04%; in assay [5], 2.36%.
Turning to `CCC/C=C/C(=O)O[C@H]1CC(C)(C)CC2[C@@]13[C@H](O)C[C@]1(C)[C@@]2(CCC2[C@@]4(C)CC[C@H](O[C@@H]5O[C@H](C(=O)O)[C@@H](O)[C@H](O[C@@H]6O[C@H](CO)[C@H](O)[C@H](O)[C@H]6O[C@@H]6O[C@@H](C)[C@H](O)[C@@H](O)[C@H]6O[C@@H]6OC[C@](O)(CO)[C@H]6O)[C@H]5O[C@@H]5O[C@H](CO)[C@H](O)[C@H](O)[C@H]5O)C(C)(C)C4CC[C@]21C)O[C@H]3O` (stereo not given in full), the activity change, negative = inhibition in assay [1] is -0.812%; in assay [2], -3.33%; in assay [3], 6.53%; in assay [4], -11.6%; in assay [5], 5.92%.
`O=c1[nH]c2ccc(S(=O)(=O)Nc3ccc(N4CCOCC4)cc3)cc2[nH]1`: the activity change, negative = inhibition was 10.5% in assay [1]; 0% in assay [2]; 11.4% in assay [3]; 0.577% in assay [4]; -4.88% in assay [5].
As to `CC(C)Cn1c(=O)c2ccccc2n2c(SCC(=O)Nc3cccc(Cl)c3)nnc12`, the activity change, negative = inhibition in assay [1] was -3.48%; in assay [2] it was 2.52%; in assay [3], 7.56%; in assay [4], -8.15%; in assay [5], 1.47%.
